# Paper PMC6919601, “Identification of Plasmodium dipeptidyl aminopeptidase allosteric inhibitors by high throughput screening” (PLoS ONE, 2019)
# Hit rate of the full screen: of about 110,000 compounds, about 230 (0.21%) showed an effect of 50% or more. This is one part of the list.
# Target: DPAP1 (Plasmodium falciparum, UniProt Q8IIJ9)
# Test: primary screen, percent inhibition; read by cleavage of a fluorogenic dipeptide substrate; higher = more effect of the substance
# Parameters: species or system P. falciparum D10 trophozoite lysates; single well
# 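Also: 30 min substrate incubation versus DMSO and 10 µM JCP410 controls.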
# Sequence of DPAP1 (Q8IIJ9 whole entry, looked up): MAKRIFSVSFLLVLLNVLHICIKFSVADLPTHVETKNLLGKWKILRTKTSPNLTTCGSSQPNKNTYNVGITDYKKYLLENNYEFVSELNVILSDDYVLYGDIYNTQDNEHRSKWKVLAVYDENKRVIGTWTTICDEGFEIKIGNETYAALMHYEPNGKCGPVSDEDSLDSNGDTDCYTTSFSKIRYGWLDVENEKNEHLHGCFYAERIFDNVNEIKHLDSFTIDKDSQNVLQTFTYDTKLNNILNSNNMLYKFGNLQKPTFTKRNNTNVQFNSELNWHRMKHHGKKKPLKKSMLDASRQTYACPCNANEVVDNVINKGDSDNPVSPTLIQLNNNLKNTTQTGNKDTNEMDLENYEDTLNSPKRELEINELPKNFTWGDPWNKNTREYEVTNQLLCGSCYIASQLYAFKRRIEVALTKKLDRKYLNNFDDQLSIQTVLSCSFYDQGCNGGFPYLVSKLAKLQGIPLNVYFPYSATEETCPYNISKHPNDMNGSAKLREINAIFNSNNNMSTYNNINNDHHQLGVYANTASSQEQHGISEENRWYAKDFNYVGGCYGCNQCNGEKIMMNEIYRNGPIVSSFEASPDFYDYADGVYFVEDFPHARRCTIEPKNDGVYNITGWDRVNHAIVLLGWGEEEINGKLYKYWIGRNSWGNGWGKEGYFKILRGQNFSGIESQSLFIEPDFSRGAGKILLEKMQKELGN
row,Compound,% Inhibition @ 10 uM [%]
1,COC(=O)c1cc2c(=O)n3cccc(C)c3nc2n(CCc2ccccc2)c1=N,-1.47
2,CC(=O)c1c(C)nc2ccccc2c1O,0.627
3,CCCC1CCc2c(sc(NC(=O)COc3ccccc3C)c2C(N)=O)C1 (stereo not shown),3.56
4,N#Cc1c(NC(=O)/C=C/C(=O)O)sc2c1CCC2,1.67
5,COc1cccc2c(-c3ccccc3)nc(SCC(=O)Nc3ncc(C)s3)nc12,-4.67
6,NC(=O)CSc1nc2c(N)ncnc2n1Cc1ccccc1,-2.21
7,Cc1cc(C)n(-c2nc(-c3ccccc3)nc3c2COC(C)(C)C3)n1,-7.33
8,Cc1ccc(S(=O)(=O)N(CC(=O)NCCO)Cc2ccccc2F)cc1,-3.33
9,Cc1cc(C)cc(NC(=O)CSc2ccccn2)c1,-10.4
10,O=[N+]([O-])c1ccc(O)cc1CN1CCCCCCC1,1.57
11,O=C(Nc1ccc(Cl)cc1)c1cccc(N2C(=O)C3C4C=CC(C5CC45)C3C2=O)c1 (stereo not shown),5.97
12,CCOc1ccccc1CNC(=O)Cn1nc(CC)n2c(cc3sc(C)cc32)c1=O,3.4
13,Cc1ccc(C)c(Cn2c3ccccc3c3cnn(CC(=O)NCCCN4CCCCC4)c(=O)c32)c1,1.8
14,O=c1cccc2n1C[C@H]1C[C@@H]2CN(Cc2ccc(Cl)cc2)C1,1.54
15,CCOc1ccccc1C1C(C#N)=C(N)Oc2[nH]nc(-c3ccccc3)c21 (stereo not shown),10
16,COCC(=O)NCCc1nc2ccccc2[nH]1,7.85
17,N#Cc1c(NC(=O)CSc2ncccn2)oc(-c2ccccc2)c1-c1ccccc1,-3.16
18,O=C(NCCc1ccc(F)cc1)C1CCN(c2cnccn2)CC1,0.758
19,Cc1ccc(C(=O)Nc2cc(C)ccc2C)cc1,-1.22
20,CCc1ccc(-c2cc3c(=O)n(CC(=O)NC(C)CC)nc(C)n3n2)cc1 (stereo not shown),-2.85
21,CCCOc1cccc(C2c3c(oc4cc(C)cc(C)c4c3=O)C(=O)N2CCO)c1 (stereo not shown),6.34
22,Cc1n[nH]c(C)c1CCCCCOc1ccc(Cl)cc1,5.01

row,Compound,% Inhibition @ 10 uM [%]
1,Cc1nn(C)c(C)c1/C=C1\CCCC2=C1OC(N)=C(C#N)C2c1c(C)nn(C)c1C (stereo not shown),5.52
2,CCCCCCOC(=O)c1c[nH]nc1[N+](=O)[O-],-5.96
3,CCOc1ccccc1NS(=O)(=O)c1ccc(F)cc1,1.35
4,CC(C)OCCCNC(=O)/C(C#N)=C/c1c(Oc2ccccc2Cl)nc2ccccn2c1=O,1.06
5,Fc1ccc(CN2CCOCC2)cc1F,3.24
6,O=C(CCCN1C(=O)c2cccc3cccc(c23)C1=O)N1CCN(c2cccc(Cl)c2)CC1,1.34
7,O=C(Cn1ncc2c1-c1ccccc1OC2)N1CCC2(CC1)OCCO2,3.32
8,O=C1CCC(=O)N1CN(C(=O)C(F)(F)F)c1ccccc1,-2.68
9,COc1cc(NC(=O)c2ccc(Br)s2)cc(OC)c1,-6.74
10,CC(C)(C)c1ccc(C(CC(=O)O)N2C(=O)c3ccccc3C2=O)cc1 (stereo not shown),9.03
11,COc1ccccc1C(=O)N/C(=C/C=C/c1ccccc1)C(=O)NCc1ccccc1,30.1
12,COc1ccccc1NC(=O)c1c(NC(=O)CN(C)C)sc2c1CCC(C(C)(C)C)C2 (stereo not shown),-5.27
13,CC1CCc2c(sc(NC(=O)C3CC3c3ccccc3)c2C#N)C1 (stereo not shown),-0.522
14,COc1cc(Br)cc(/C=C2\SC(c3ccccc3)=NC2=O)c1O,38.6
15,COc1ccc(C2=NN(c3ccc(Cl)c(Cl)c3)C(c3ccc(OC)cc3)C2)cc1 (stereo not shown),-0.128
16,COc1ccc(/C=C/C(=O)Nc2cccc(C(F)(F)F)c2)cc1,-3.27
17,COc1ccc(C2=NN(CC(=O)NCC3CCCO3)C(=O)CC2)cc1 (stereo not shown),-0.0542
18,CCCCC1CCC(C(=O)Nc2c3c(nn2-c2ccc(F)cc2)CS(=O)(=O)C3)CC1 (stereo not shown),-3.35
19,O=C(Nc1ccc(Br)cc1F)c1ccc(NS(=O)(=O)c2cccc(F)c2)cc1,5.15
20,CCOC(=O)c1cc(C)n(CC2CCC(C(=O)N3CCCC(C)C3)CC2)c1C (stereo not shown),1.65
21,O=C(CCS(=O)(=O)c1cccc2nsnc12)NC(c1ccccc1)c1ccccc1,4.27
22,CCCC1CCC(c2ccc(C(=O)OCC(=O)c3ccc(Br)cc3)cc2)CC1 (stereo not shown),-2.51

row,Compound,% Inhibition @ 10 uM [%]
1,Cc1ccc2nc3c(O)n(CCCN4CCN(C5CCCCC5)CC4)cnc-3c2c1,-5.36
2,O=C(c1ccco1)N(CCN(C(=O)c1ccco1)c1ccccc1)c1ccccc1,1.37
3,CC(NC(=O)C1CCCN(C(=O)c2cc3sccc3n2C)C1)c1ccccc1 (stereo not shown),-2.84
4,Cc1nc2c(c(C)nn2C(C)(C)C)c(C)c1CCC(=O)NCCCN1CCCC1=O,0.953
5,COc1ccc(S(=O)(=O)NCc2ccccc2)c2ccccc12,2.3
6,CC1CCC(NCCCN2CCCC2=O)CC1 (stereo not shown),-7.35
7,Cc1cc(C)cc(N(CC(=O)NCCSc2nc3ccccc3s2)S(=O)(=O)c2ccccc2)c1,0.219
8,CC(=O)Nc1ccc(Cc2ccc(NC(C)=O)c(C#N)c2)cc1C#N,4.8
9,Cc1nc2ccc(NC(=O)Nc3cccc4ccccc34)cc2s1,-0.545
10,O=C(Cn1cnc2ccccc2c1=O)c1cccs1,0.528
11,CCCCOC1CS(=O)(=O)CC1OCCCC (stereo not shown),-5.28
12,CCOc1ccc(-c2csc(/C(C#N)=C/c3ccc(Cl)cc3)n2)cc1,-4.21
13,CSc1ccc(C2C(C#N)=C(N)OC3=C2C(=O)CC(C)(C)C3)cc1 (stereo not shown),1.96
14,Oc1nc2ccccc2c2nncn12,-4.76
15,CC(NC(=O)c1cccs1)c1ccccc1 (stereo not shown),0.583
16,CCCCc1ccc(C(=O)Nc2ccc(Cl)c3c2C(=O)c2ccccc2C3=O)cc1,-1.98
17,Cc1ccc(C(=O)Nc2ccc(C)cn2)cc1,-1.61
18,CCCCNc1nc2c(-c3ccc(OC)cc3)nnn2c2ccccc12,2.04
19,c1ccc(-c2cn(-c3ccccc3)c3ncnc(N4CCCCC4)c23)cc1,-2.49
20,COCCCn1c(SCC(=O)N2CC(C)CC(C)C2)nc2c(sc3ccccc32)c1=O (stereo not shown),6.35
